# Reference: PubChem BioAssay AID1768 (National Center for Advancing Translational Sciences (NCATS), 2009)
# Out of some 270,000 compounds screened, about 620 (0.23%) were called active. Inconclusive means that the source gave no clear call. Such entries were picked first, then a sample of the others. Calls follow the shape of the dose curve; as a rule, active = well fitted inhibition curve with a large enough effect in the polarisation, with a control signal flat (not every such curve was filed as active); inconclusive = small, poorly fitted or top-dose-only effect, or effect the other way, or a change in a side signal; inactive = no such curve, though single readings can be large or run the other way; the % refers to the polarisation. Potencies beside an inconclusive call are fits to weak or partial responses and may not hold up. A note “side channel” means that the fit belongs to a control or component signal, not to the main read-out.
# Target: Menin (Homo sapiens) (UniProt O00255)
# Sequence of UniProt O00255 (O00255 whole entry, looked up): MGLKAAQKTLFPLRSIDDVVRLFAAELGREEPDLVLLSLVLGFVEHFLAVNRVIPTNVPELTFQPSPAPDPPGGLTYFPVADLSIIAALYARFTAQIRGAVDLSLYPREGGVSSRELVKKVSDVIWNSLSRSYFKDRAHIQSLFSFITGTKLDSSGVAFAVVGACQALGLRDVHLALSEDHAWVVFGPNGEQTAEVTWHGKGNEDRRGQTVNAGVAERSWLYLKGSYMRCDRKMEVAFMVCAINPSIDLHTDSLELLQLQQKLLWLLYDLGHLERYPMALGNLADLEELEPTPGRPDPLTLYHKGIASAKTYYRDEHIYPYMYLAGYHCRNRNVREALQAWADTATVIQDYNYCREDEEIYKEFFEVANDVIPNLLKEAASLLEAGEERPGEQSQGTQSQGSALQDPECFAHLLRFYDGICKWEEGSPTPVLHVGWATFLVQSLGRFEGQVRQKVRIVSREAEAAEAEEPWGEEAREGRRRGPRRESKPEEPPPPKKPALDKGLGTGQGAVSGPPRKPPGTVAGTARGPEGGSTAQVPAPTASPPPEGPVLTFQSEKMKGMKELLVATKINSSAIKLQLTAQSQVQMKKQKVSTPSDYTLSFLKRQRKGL
# Experiment: qHTS Assay for Inhibitors Targeting the Menin-MLL Interaction in MLL Related Leukemias: Competition With Texas Red Labeled MLL-derived Mutant Peptide; as to FP activity change, negative = inhibition: % of control where 0% means no effect
# Details: fluorescence polarization; FP activity change, negative = inhibition: at 61.6 µM (top of the series)
# Potency is read from the fitted curve at half-maximal effect; tags tell the direction and shape of the fitted curve or compound fluorescence and quenching.
SMILES,Potency,"FP activity change, negative = inhibition"
CCC(=O)NC(=S)Nc1ccc(NC(=O)COc2ccc([N+](=O)[O-])cc2)cc1,"inconclusive: 28.2 µM [quencher, side channel, single point]",–
O=C(Nc1nc(-c2ccccc2)cs1)C1c2ccccc2Oc2ccccc21,active: 17.8 µM,–
COc1ccccc1CCNC(=O)CSc1ccc(-c2ccco2)nn1,"inconclusive: 25.1 µM [quencher, side channel, single point]",–
Cc1cc(SCC(=O)c2cccs2)n2nc(C)c(-c3ccccc3)c2n1,"inconclusive: 14.1 µM [quencher, side channel, partial curve]",–
COc1ccc(N2CCC(CNC(=O)Nc3ccc(Cl)cc3)C2)cc1 (configuration not stated),"inconclusive: 15.8 µM [quencher, side channel, partial curve]",–
COc1ccccc1CN1C[C@@H]2C[C@@H](c3cccc(C)n3)N3CCC[C@@]23C1=O,"inconclusive: 22.4 µM [fluorescent, side channel, partial curve]",–
CNS(=O)(=O)c1ccc2nc(NC(=O)c3ccc(N4C(=O)CCC4=O)cc3)sc2c1,"inconclusive: 25.1 µM [quencher, side channel, single point]",–
Cc1ccc(C(=O)NNC(=O)c2cc3ccccc3cc2O)cc1,"inconclusive: 17.8 µM [quencher, side channel, partial curve]",–
COc1ccc(-c2nnc3sc(COc4ccc(C)cc4)nn23)cc1,"inconclusive: 25.1 µM [fluorescent, side channel, single point]",–
Cc1cc(N)n2nc(C)c(-c3ccc(Cl)cc3)c2n1,"inconclusive: 14.1 µM [quencher, partial curve]",–
O=[N+]([O-])c1ccc2nccn2c1,"inconclusive: 10 µM [inhibitor, partial curve]",–
CSc1cccc(NC(=O)CCCOc2ccc(Cl)cc2C)c1,"inconclusive: 28.2 µM [quencher, side channel, single point]",–
C=C[C@](C)(O)CCC1C(=C)CC(OC(C)=O)C2C(C)(C)CCCC12C (some centres not stated),"inconclusive: 3.55 µM [inhibitor, single point]",–
CNc1ccc(-c2nc3ccccc3s2)cc1,"inconclusive: 12.6 µM [quencher, side channel, partial curve]",–
CCn1cc(C(=O)N(C)c2cc(C)ccc2OC)c2cc(OC)c(OC)cc2c1=O,"inconclusive: 5.01 µM [inhibitor, full curve, poor fit]",–
N#Cc1c(-c2cccc(Br)c2)cc(-c2ccco2)[nH]c1=O,"inconclusive: 25.1 µM [quencher, side channel, partial curve]",–
Nc1nonc1-n1nnc(C(=O)N/N=C/c2ccccc2F)c1-c1cccs1,"inconclusive: 22.4 µM [quencher, side channel, single point]",–
Cc1ccc2nc(NCCCO)nc(-c3ccccc3)c2c1,–,inactive: -1.32%
Cc1ccccc1OCCNC(=O)c1ccco1,"inconclusive: 35.5 µM [inhibitor, single point]",–

SMILES,Potency,"FP activity change, negative = inhibition"
CCOc1cc(N2CCOCC2)c(OCC)cc1NC(=O)c1ccc2ccccc2n1,"inconclusive: 39.8 µM [quencher, side channel, single point]",–
Cc1cc(C)nc(NC(=NCCc2c[nH]c3ccccc23)NC(=O)Nc2ccccc2)n1,"inconclusive: 35.5 µM [inhibitor, single point]",–
COc1ccc(CNC(=O)CS(=O)(=O)Cc2nc(-c3ccc(OC)cc3)oc2C)cc1,"inconclusive: 28.2 µM [fluorescent, partial curve]",–
CC(=O)Nc1ccc(NC(=O)c2ccc3c(c2)C(=O)N(c2ccccc2C)C3=O)cc1,"inconclusive: 39.8 µM [fluorescent, side channel, single point]",–
Cc1cc(C)c(Nc2cc(S(=O)(=O)O)c(N)c3c2C(=O)c2ccccc2C3=O)c(C)c1,"inconclusive: 31.6 µM [quencher, side channel, single point]",–
CCOC(=O)C1CCN(S(=O)(=O)c2cc3c(cc2C)NC(=O)CO3)CC1,"inconclusive: 14.1 µM [inhibitor, partial curve]",–
CCN(CC)C(=O)COc1ccc2oc(C)c(C(=O)OC)c2c1,"inconclusive: 25.1 µM [inhibitor, single point]",–
COc1ccc(NC2=C(c3ccc(OC)cc3)C(=O)c3ccccc32)cc1,"inconclusive: 25.1 µM [quencher, side channel, single point]",–
c1ccc(C2Nc3cccc4cccc(c34)N2)cc1,"inconclusive: 14.1 µM [quencher, side channel, partial curve]",–
O=C(CCC(=O)Nc1ccccc1Cl)N/N=C/c1c[nH]c2ccccc12,"inconclusive: 15.8 µM [quencher, side channel, partial curve]",–
CC(=O)Nc1ccc(-c2csc(NC(=O)Cc3cccc(F)c3)n2)cc1,"inconclusive: 39.8 µM [fluorescent, side channel, single point]",–
CCOC(=O)Cc1csc(NC(=O)Cc2cccs2)n1,"inconclusive: 31.6 µM [quencher, side channel, partial curve]",–
C1=C(c2ccccc2)Nc2nnnn2C1c1cccs1 (configuration not stated),"inconclusive: 17.8 µM [inhibitor, single point]",–
COc1ccc(-c2c(C3C4C=CCCC4(C)C(=O)N3Cc3ccccc3)ccc3ccccc23)cc1OC (configuration not stated),–,inactive: -16.3%
COc1ccc(-c2cc(-c3ccccc3)nc(SCC(=O)Nc3nccs3)c2C#N)cc1,"inconclusive: 14.1 µM [inhibitor, partial curve]",–
CC(Sc1ccc(Cl)cc1)C(=O)Nc1ccc(S(=O)(=O)N2CCOCC2)cc1 (configuration not stated),"inconclusive: 10 µM [quencher, side channel, partial curve]",–
O=C1OCCN1C(=O)[C@H]1[C@H](c2ccc([N+](=O)[O-])cc2)C(c2ccc(F)cc2)=NN1c1ccccc1,"inconclusive: 3.98 µM [quencher, side channel, full curve]",–
CN1C(=O)/C(=C/c2cc(N=Nc3ccccc3)ccc2O)SC1=S,"inconclusive: 3.55 µM [fluorescent, full curve]",–
Oc1ccccc1N1CCN(C(=S)NCCc2ccccc2)CC1,"inconclusive: 39.8 µM [quencher, side channel, single point]",–

SMILES,Potency,"FP activity change, negative = inhibition"
Cc1[nH]c2ccccc2c1/C=N/NC(=O)c1cccs1,"inconclusive: 22.4 µM [quencher, side channel, partial curve]",–
CC(=O)NCCC(=O)Nc1sc2c(c1-c1nc3ccccc3[nH]1)CCCC2,–,inactive: 26.1%
COc1cccc2sc(Nc3nnc(-c4ccccc4Cl)o3)nc12,"inconclusive: 39.8 µM [quencher, side channel, single point]",–
CCOc1ccc(NC(=S)NNC(=O)c2ccc(Br)cc2)cc1,"inconclusive: 17.8 µM [quencher, side channel, partial curve]",–
Nc1c(Cl)cc2c(c1Oc1ccccc1)C(=O)c1ccccc1C2=O,"inconclusive: 28.2 µM [quencher, side channel, single point]",–
COC(=O)C1=C(C)N(Cc2ccccc2)C(=NCCCCO)N[C@H]1c1ccccc1,"inconclusive: 17.8 µM [inhibitor, single point]",–
NNC(=O)c1cc2ccccc2cc1O,"inconclusive: 11.2 µM [quencher, side channel, partial curve]",–
COc1ccccc1NC(=O)CN1CCN(CC(=O)Nc2ccc(OC)c(OC)c2)CC1,"inconclusive: 31.6 µM [inhibitor, partial curve, poor fit]",–
CCc1nnc(NS(=O)(=O)c2ccc(N/C=C/C(=O)c3ccc(OC)cc3)cc2)s1,"inconclusive: 12.6 µM [quencher, side channel, partial curve]",–
COc1cccc([C@@H]2Oc3ccc(OC)cc3C[C@H]2OC(=O)N[C@H](C)C2CCCCC2)c1,–,inactive: -3.98%
O=C(N/N=C/c1cn(-c2ccccc2)nc1-c1cccs1)c1ccc(Cl)cc1,"inconclusive: 35.5 µM [inhibitor, single point]",–
CCCCCCCC[n+]1cccc2c3ccccc3ccc21,"inconclusive: 20 µM [inhibitor, partial curve]",–
O=C(c1cnc2nc3ccccc3n2c1)c1cc(F)ccc1O,"inconclusive: 31.6 µM [quencher, side channel, partial curve]",–
Nc1nc(CN2CCN(c3ccccc3F)CC2)nc(N2CCCc3ccccc32)n1,"inconclusive: 12.6 µM [fluorescent, side channel, partial curve]",–
CCc1ccc(C2=NN(CCC(=O)NCc3cccs3)C(=O)CC2)cc1,"inconclusive: 7.94 µM [fluorescent, side channel, partial curve]",–
COc1cc(/C=C(\C#N)C(=O)c2ccc(O)c(O)c2)cc(I)c1O,"inconclusive: 31.6 µM [quencher, side channel, single point]",–
CSC1=NSC2=NC(=O)/C(=C/c3coc4ccccc4c3=O)C(=N)N12,"inconclusive: 25.1 µM [quencher, side channel, partial curve]",–
O=C(CSc1nnc(-c2ccncc2)o1)c1cccc([N+](=O)[O-])c1,"inconclusive: 22.4 µM [quencher, side channel, single point]",–
CCOC(=O)N1CCC(N2C(=O)c3ccccc3C2Nc2c(C)cccc2C)CC1 (configuration not stated),"inconclusive: 7.94 µM [fluorescent, side channel, full curve, poor fit]",–
